Here are results for 40 compounds from PubChem BioAssay (NCATS).

Several values for one entry are separate records, joined by “and”; a condition that tells them apart may be missing. Equal entries are not always repeated. Some of the results follow. The main result of the screen is listed elsewhere. These columns were measured beside it and carry no call. The list favours compounds with an active or inconclusive main result.

The nature of the assay: qHTS Assay for Lipid Storage Modulators (AID 1519). To be noted: Drosophila S3 cells, BODIPY lipid droplet/cell ratio, laser cytometry; measured here: cell count channel max response; cells loaded with oleic acid. An outline of the steps: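 Cells seeded at 5,000 per well were treated with compounds over a concentration series and loaded with oleic acid (400 uM, as added). Lipid droplet fluorescence (488 nm excitation, 500-530 nm channel) was read by laser-scanning cytometry and normalized to 20 uM Triacsin C.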
On the technique in general: In qHTS, concentration-response curves come from the screen itself.
Turning to `FC(F)(F)c1ccccc1-c1nc(NC2CC2)c2ccccc2n1`, the max response came out at 34.1%. The same measure for `O=c1c(-c2ccccc2)nc2cncnc2n1C1CC1`: 25.3%. The same measure for `COc1ccc(-c2cc(=O)c3ccc(O)cc3o2)cc1`: 65.5%; for `Cc1noc(C)c1-c1nc(Nc2ccccc2)c2ccccc2n1`: 41.1%; for `COc1ccccc1N1CCN(CCCCNC(=O)c2ccc(-c3ccc(C(C)=O)cc3)cc2)CC1`: 48.1%. The same measure for `Cn1c(=O)c(CCc2ccccc2)nc2cncnc21`: 26.1%; for `COCCNC(=O)COc1ccc(OCCNC[C@@H](O)COc2ccccc2)cc1`: 51.3%; for `Cc1cccc(CNc2ccnc(-c3ccc(N(C)C)cc3)n2)c1`: -51.4%. Consider `Cc1cnc(CNc2nc(-c3cccc(NS(C)(=O)=O)c3)nc3ccccc23)cn1`, for which the max response stood at 34.5%. The same measure for `COc1cccc(Cn2c(=O)c(-c3ccc(Cl)cc3)nc3cnc(N4CCN(C)CC4)nc32)c1`: -15.6%; for `c1cn(-c2cc(-c3ccc4c(c3)OCO4)ncn2)cn1`: 18.1%. Under `CC(=O)Oc1cc(C(C)C)c(OCCN(C)C)cc1C` stands 51.7%; under `CS(=O)(=O)Nc1cccc(-c2nccc(NCc3cccs3)n2)c1`, 33.6%.

`OC[C@H]1O[C@@H](OC[C@H]2O[C@@H](O)[C@H](O)[C@@H](O)[C@@H]2O)[C@H](O)[C@@H](O)[C@@H]1O`: the max response is -29.8%. The same measure for `COc1ccc2[nH]cc(CCNc3ccnc(-c4c(C)noc4C)n3)c2c1`: 28.2%; for `COc1ncc2nc(-c3cc(F)cc(F)c3)c(=O)n(C[C@H]3CCCO3)c2n1`: 24.9%; for `Cc1noc(C)c1-c1nc(N2CCN(C)CC2)c2ccccc2n1`: 38.8%. Under `Cc1cnc(CNc2ccnc(-c3cccnc3)n2)cn1` stands 38%. The same measure for `CC(=O)OC1CCC2(C)C3CCC4(C)C(CC5CCCCC54C(C)=O)C3CC(=O)[C@@]2(O)C1` (stereo not given in full): 48.5%; for `CC(C)(C)c1cc(O)c(C(C)(C)C)cc1O`: 88.2%. `Cc1ccc(-c2nn(CC(C)(C)C)c3ncnc(N)c23)cc1`: the max response was 77.9%. Under `COCCn1c(=O)c(-c2cc(F)cc(F)c2)nc2cncnc21` stands 33.1%; under `CC(C)=CCC/C(C)=C\COc1c2ccoc2cc2oc(=O)ccc12`, 86.5%; under `COCCn1c(=O)c(-c2ccc(F)cc2)nc2cnc(OCc3ccccc3)nc21`, 7.55%.

In the case of `CN(C)c1ncc2nc(CCc3ccccc3)c(=O)n(C3CC3)c2n1`, the max response came out at 34.1%.

Regarding `CCNc1ncc2nc(-c3ccc(OC)cc3)c(=O)n(Cc3ccc(F)cc3)c2n1`, the max response was determined as 1.7%. With `CN(Cc1ccco1)c1ncncc1-c1ccc2c(c1)OCO2`, the max response was found to be 52.2%. For `Cc1noc(C)c1-c1nccc(NCc2ccccc2)n1`, the max response worked out at 42.5%. The same measure for `Cc1ccccc1-c1nc(N2CCN(C)CC2)c2ccccc2n1`: 48.7%; for `COc1cccc(Cn2c(=O)c(-c3ccc(Cl)cc3)nc3cnc(OC)nc32)c1`: 26%; for `CN1CCN(c2ncc3nc(-c4ccccc4)c(=O)n(Cc4cccs4)c3n2)CC1`: 36.9%. Under `O=C(c1cc(C(F)(F)F)cc(C(F)(F)F)c1)N1CCC2(CCCN(Cc3ccncc3)C2)CC1` stands 13.6%; under `NCCc1cnc[nH]1`, 29.4% and 65.4%. The same measure for `COc1ccc2[nH]cc(CCNc3ncncc3-c3ccccc3OC)c2c1`: 13.8%.

For the compound `CCCCN1CCC(CCC(=O)c2cc(Cl)c(N)cc2OC)CC1`, the max response was 51%. `O=C(c1ccncc1)N1CCC[C@@]2(CCN(c3ccccc3)C2)C1`: the max response stood at 34.6%. The same measure for `C=CCN1CCc2cc(O)c(O)cc2[C@H](c2ccccc2)C1`: 50.3%; for `COc1ccc(-n2c(=O)c(C)nc3cnc(Nc4cccc(OC)c4)nc32)cc1`: 11.2%. Under `COc1ccc2[nH]cc(CCNc3cc(-c4c(C)noc4C)ncn3)c2c1` stands 24.6%; under `CS(=O)(=O)N1CCC2(CC1)CN(c1ncccn1)C2`, 27.9%.
